# Assay results published in the supplement of paper PMC8728848.
# The other results are listed elsewhere or left out.
# B1: Gal 4 (Mus musculus), P56470 (protein)
# chain: MAYVPAPGYQPTYNPTLPYYQPIPGGLNVGMSVYIQGVASEHMKRFFVNFVVGQDPGSDVAFHFNPRFDGWDKVVFNTLQGGKWGSEERKRSMPFKKGAAFELVFIVLAEHYKVVVNGNPFYEYGHRLPLQMVTHLQVDGDLQLQSINFIGGQPLRPQGPPMMPPYPGPGHCHQQLNSLPTMEGPPTFNPPVPYFGRLQGGLTARRTIIIKGYVPPTGKSFAINFKVGSSGDIALHINPRMGNGTVVRNSLLNGSWGSEEKKITHNPFGPGQFFDLSIRCGLDRFKVYANGQHLFDFAHRLSAFQRVDTLEIQGDVTLSYVQI
# Experiments:
# Experiment in all cases: glycan array binding signal (z-score within array); higher = stronger binding
# Settings in all cases: glycan notation: IUPAC condensed, linker removed
# [1] = target: Gal(b1-3)[Fuc(a1-4)]GlcNAc(b1-2)Man
# How it was run: (§1)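 Glycan array binding is given as a within-array Z-score, which can be read as non-binding when negative. The arrays, 3228 of them, came from the Consortium for Functional Glycomics database and were retained only where the protein sequence was available. Z-scores were averaged across arrays of the same protein sequence at different concentrations or buffers and across linkers.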
# [2] = target: Gal(b1-3)[Fuc(a1-4)]GlcNAc(b1-2)Man(a1-3)[Gal(b1-3)[Fuc(a1-4)]GlcNAc(b1-2)Man(a1-6)]Man(b1-4)GlcNAc(b1-4)GlcNAc
# How it was run: as §1
# [3] = target: Gal(b1-3)[Fuc(a1-4)]GlcNAc(b1-2)Man(a1-3)[Gal(b1-3)[Fuc(a1-4)]GlcNAc(b1-2)Man(a1-6)]Man(b1-4)GlcNAc(b1-4)[Fuc(a1-6)]GlcNAc
# How it was run: as §1
# [4] = target: Gal(b1-3)[Fuc(a1-4)]GlcNAc(b1-3)Gal(b1-3)[Fuc(a1-4)]GlcNAc
# How it was run: as §1
# [5] = target: Gal(b1-3)[Fuc(a1-4)]GlcNAc(b1-3)Gal(b1-4)GlcNAc
# How it was run: as §1
# [6] = target: Gal(b1-3)[Fuc(a1-4)]GlcNAc(b1-3)Gal(b1-4)[Fuc(a1-3)]GlcNAc
# How it was run: as §1
# [7] = target: Gal(b1-3)[Fuc(a1-4)]GlcNAc(b1-6)GalNAc
# How it was run: as §1
# [8] = target: Gal(b1-3)[GlcNAc(b1-6)]GalNAc
# How it was run: as §1
# [9] = target: Gal(b1-3)[Neu5Ac(a2-6)]GalNAc
# How it was run: as §1
# [10] = target: Gal(b1-3)[Neu5Ac(a2-6)]GlcNAc(b1-4)Gal(b1-4)Glc
# How it was run: as §1
# [11] = target: Gal(b1-3)[Neu5Ac(a2-6)]GlcNAc(b1-6)Gal(b1-4)Glc
# How it was run: as §1
# [12] = target: Gal(b1-3)[Neu5Ac(b2-6)]GalNAc
# How it was run: as §1
# [13] = target: Gal(b1-4)Gal
# How it was run: as §1
# [14] = target: Gal(b1-4)GalNAc(a1-3)[Fuc(a1-2)]Gal(b1-4)GlcNAc
# How it was run: as §1
# [15] = target: Gal(b1-4)GalNAc(b1-3)[Fuc(a1-2)]Gal(b1-4)GlcNAc
# How it was run: as §1
# [16] = target: Gal(b1-4)Glc
# How it was run: as §1
# [17] = target: Gal(b1-4)Glc6S
# How it was run: as §1
# [18] = target: Gal(b1-4)GlcNAc
# How it was run: as §1
# [19] = target: Gal(b1-4)GlcNAc(a1-6)Gal(b1-4)GlcNAc
# How it was run: as §1
# [20] = target: Gal(b1-4)GlcNAc(b1-2)Man
# How it was run: as §1
# [21] = target: Gal(b1-4)GlcNAc(b1-2)Man(a1-3)Man(b1-4)GlcNAc(b1-4)GlcNAc
# How it was run: as §1
# [22] = target: Gal(b1-4)GlcNAc(b1-2)Man(a1-3)[Gal(b1-4)GlcNAc(b1-2)Man(a1-6)]Man(b1-4)GlcNAc(b1-4)GlcNAc
# How it was run: as §1
# [23] = target: Gal(b1-4)GlcNAc(b1-2)Man(a1-3)[Gal(b1-4)GlcNAc(b1-2)Man(a1-6)]Man(b1-4)GlcNAc(b1-4)[Fuc(a1-6)]GlcNAc
# How it was run: as §1
# [24] = target: Gal(b1-4)GlcNAc(b1-2)Man(a1-3)[Gal(b1-4)GlcNAc(b1-2)Man(a1-6)][Gal(b1-4)GlcNAc(b1-4)]Man(b1-4)GlcNAc(b1-4)[Fuc(a1-6)]GlcNAc
# How it was run: as §1
# [25] = target: Gal(b1-4)GlcNAc(b1-2)Man(a1-3)[Gal(b1-4)GlcNAc(b1-2)Man(a1-6)][GlcNAc(b1-4)]Man(b1-4)GlcNAc(b1-4)[Fuc(a1-6)]GlcNAc
# How it was run: as §1
# [26] = target: Gal(b1-4)GlcNAc(b1-2)Man(a1-3)[Gal(b1-4)GlcNAc(b1-2)][GlcNAc(b1-4)]Man(b1-4)GlcNAc(b1-4)GlcNAc
# How it was run: as §1
# [27] = target: Gal(b1-4)GlcNAc(b1-2)Man(a1-3)[GlcNAc(b1-2)Man(a1-6)]Man(b1-4)GlcNAc(b1-4)GlcNAc
# How it was run: as §1
# [28] = target: Gal(b1-4)GlcNAc(b1-2)Man(a1-3)[GlcNAc(b1-4)][Gal(b1-4)GlcNAc(b1-2)Man(a1-6)]Man(b1-4)GlcNAc(b1-4)GlcNAc
# How it was run: as §1
# [29] = target: Gal(b1-4)GlcNAc(b1-2)Man(a1-3)[Man(a1-6)]Man(b1-4)GlcNAc(b1-4)GlcNAc
# How it was run: as §1
# [30] = target: Gal(b1-4)GlcNAc(b1-2)Man(a1-6)Man(b1-4)GlcNAc(b1-4)GlcNAc
# How it was run: as §1
# [31] = target: Gal(b1-4)GlcNAc(b1-2)Man(a1-6)[GlcNAc(b1-2)Man(a1-3)]Man(b1-4)GlcNAc(b1-4)GlcNAc
# How it was run: as §1
# [32] = target: Gal(b1-4)GlcNAc(b1-2)Man(a1-6)[Man(a1-3)]Man(b1-4)GlcNAc(b1-4)GlcNAc
# How it was run: as §1
# [33] = target: Gal(b1-4)GlcNAc(b1-2)[Gal(b1-4)GlcNAc(b1-4)]Man(a1-3)[Gal(b1-4)GlcNAc(b1-2)Man(a1-6)]Man(b1-4)GlcNAc(b1-4)GlcNAc
# How it was run: as §1
# [34] = target: Gal(b1-4)GlcNAc(b1-2)[Gal(b1-4)GlcNAc(b1-4)]Man(a1-3)[Gal(b1-4)GlcNAc(b1-2)[Gal(b1-4)GlcNAc(b1-6)]Man(a1-6)]Man(b1-4)GlcNAc(b1-4)GlcNAc
# How it was run: as §1
# [35] = target: Gal(b1-4)GlcNAc(b1-2)[Gal(b1-4)GlcNAc(b1-4)]Man(a1-3)[GlcNAc(b1-4)][Gal(b1-4)GlcNAc(b1-2)Man(a1-6)]Man(b1-4)GlcNAc(b1-4)GlcNAc
# How it was run: as §1
# [36] = target: Gal(b1-4)GlcNAc(b1-2)[Gal(b1-4)GlcNAc(b1-4)]Man(a1-3)[GlcNAc(b1-4)][Gal(b1-4)GlcNAc(b1-2)[Gal(b1-4)GlcNAc(b1-6)]Man(a1-6)]Man(b1-4)GlcNAc(b1-4)GlcNAc
# How it was run: as §1
# [37] = target: Gal(b1-4)GlcNAc(b1-2)[Gal(b1-4)GlcNAc(b1-6)]Man(a1-6)[Gal(b1-4)GlcNAc(b1-2)Man(a1-3)]Man(b1-4)GlcNAc(b1-4)GlcNAc
# How it was run: as §1
# [38] = target: Gal(b1-4)GlcNAc(b1-2)[Gal(b1-4)GlcNAc(b1-6)]Man(a1-6)[Gal(b1-4)GlcNAc(b1-2)Man(a1-3)]Man(b1-4)GlcNAc(b1-4)[Fuc(a1-6)]GlcNAc
# How it was run: as §1
binder,measurement,setting,value
B1,glycan array binding signal (z-score),[1],-0.296
same,glycan array binding signal (z-score),[2],-0.179
same,glycan array binding signal (z-score),[3],-0.221
same,glycan array binding signal (z-score),[4],-0.252
same,glycan array binding signal (z-score),[5],-0.242
same,glycan array binding signal (z-score),[6],-0.228
same,glycan array binding signal (z-score),[7],-0.318
same,glycan array binding signal (z-score),[8],-0.234
same,glycan array binding signal (z-score),[9],-0.238
same,glycan array binding signal (z-score),[10],-0.283
same,glycan array binding signal (z-score),[11],-0.176
same,glycan array binding signal (z-score),[12],-0.245
same,glycan array binding signal (z-score),[13],-0.224
same,glycan array binding signal (z-score),[14],4.23
same,glycan array binding signal (z-score),[15],-0.205
same,glycan array binding signal (z-score),[16],-0.217
same,glycan array binding signal (z-score),[17],0.02
same,glycan array binding signal (z-score),[18],-0.233
same,glycan array binding signal (z-score),[19],-0.229
same,glycan array binding signal (z-score),[20],-0.289
same,glycan array binding signal (z-score),[21],-0.198
same,glycan array binding signal (z-score),[22],-0.226
same,glycan array binding signal (z-score),[23],-0.2
same,glycan array binding signal (z-score),[24],-0.291
same,glycan array binding signal (z-score),[25],-0.285
same,glycan array binding signal (z-score),[26],-0.192
same,glycan array binding signal (z-score),[27],-0.199
same,glycan array binding signal (z-score),[28],-0.292
same,glycan array binding signal (z-score),[29],-0.203
same,glycan array binding signal (z-score),[30],-0.231
same,glycan array binding signal (z-score),[31],-0.238
same,glycan array binding signal (z-score),[32],-0.209
same,glycan array binding signal (z-score),[33],-0.227
same,glycan array binding signal (z-score),[34],-0.208
same,glycan array binding signal (z-score),[35],-0.164
same,glycan array binding signal (z-score),[36],-0.256
same,glycan array binding signal (z-score),[37],-0.246
same,glycan array binding signal (z-score),[38],-0.342
